# Source: article PMC9911399, “Two distinct binding modes provide the RNA-binding protein RbFox with extraordinary sequence specificity”
# Positions count from the first letter of the chain named. The list shows a part of the results.
# T1: RBFOX1 RRM (Homo sapiens, UniProt Q9NWB1 109-208)
# T1 sequence: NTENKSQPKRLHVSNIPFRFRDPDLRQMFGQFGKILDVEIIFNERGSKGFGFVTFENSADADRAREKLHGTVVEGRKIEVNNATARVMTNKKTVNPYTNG
# B1: CCAGUAC (DNA:RNA)
# RNA: GGGAGACCGGAAUUCAGAUUGUCCCCAGUACUUAAAUCCCGUCGUAGCCACCA
# DNA 1: CAATCTGAATTCCGGTCTCCC
# DNA 2: TGGTGGCTACGACGGGATT
# B2: GUGCGAG (DNA:RNA)
# RNA: B1 RNA with C25G, C26U, A27G, G28C, U29G, C31G
# DNA 1: CAATCTGAATTCCGGTCTCCC
# DNA 2: TGGTGGCTACGACGGGATT
# B3: AGAAGCC (DNA:RNA)
# RNA: B1 RNA with C25A, C26G, G28A, U29G, A30C
# DNA 1: CAATCTGAATTCCGGTCTCCC
# DNA 2: TGGTGGCTACGACGGGATT
# B4: AAGAGGA (DNA:RNA)
# RNA: GGGAGACCGGAAUUCAGAUUGUCCAAGAGGAUUAAAUCCCGUCGUAGCCACCA
# DNA 1: CAATCTGAATTCCGGTCTCCC
# DNA 2: TGGTGGCTACGACGGGATT
# B5: ACGAACA (DNA:RNA)
# RNA: B4 RNA with A26C, G29A, G30C
# DNA 1: CAATCTGAATTCCGGTCTCCC
# DNA 2: TGGTGGCTACGACGGGATT
# B6: UAAGCUG (DNA:RNA)
# RNA: B1 RNA with C25U, C26A, U29C, A30U, C31G
# DNA 1: CAATCTGAATTCCGGTCTCCC
# DNA 2: TGGTGGCTACGACGGGATT
# B7: AAGGAAA (DNA:RNA)
# RNA: B4 RNA with A28G, G29A, G30A
# DNA 1: CAATCTGAATTCCGGTCTCCC
# DNA 2: TGGTGGCTACGACGGGATT
# B8: GGCCAUA (DNA:RNA)
# RNA: B4 RNA with A25G, A26G, G27C, A28C, G29A, G30U
# DNA 1: CAATCTGAATTCCGGTCTCCC
# DNA 2: TGGTGGCTACGACGGGATT
# B9: GACGCGU (DNA:RNA)
# RNA: B4 RNA with A25G, G27C, A28G, G29C, A31U
# DNA 1: CAATCTGAATTCCGGTCTCCC
# DNA 2: TGGTGGCTACGACGGGATT
# B10: UCCCUCG (DNA:RNA)
# RNA: B1 RNA with C25U, A27C, G28C, A30C, C31G
# DNA 1: CAATCTGAATTCCGGTCTCCC
# DNA 2: TGGTGGCTACGACGGGATT
# B11: CACUCCU (DNA:RNA)
# RNA: B4 RNA with A25C, G27C, A28U, G29C, G30C, A31U
# DNA 1: CAATCTGAATTCCGGTCTCCC
# DNA 2: TGGTGGCTACGACGGGATT
# B12: UCCAUGA (DNA:RNA)
# RNA: B4 RNA with A25U, A26C, G27C, G29U
# DNA 1: CAATCTGAATTCCGGTCTCCC
# DNA 2: TGGTGGCTACGACGGGATT
# B13: ACACUAC (DNA:RNA)
# RNA: B1 RNA with C25A, G28C
# DNA 1: CAATCTGAATTCCGGTCTCCC
# DNA 2: TGGTGGCTACGACGGGATT
# B14: GUAGUUA (DNA:RNA)
# RNA: B1 RNA with C25G, C26U, A30U, C31A
# DNA 1: CAATCTGAATTCCGGTCTCCC
# DNA 2: TGGTGGCTACGACGGGATT
# B15: GCGGUUC (DNA:RNA)
# RNA: B1 RNA with C25G, A27G, A30U
# DNA 1: CAATCTGAATTCCGGTCTCCC
# DNA 2: TGGTGGCTACGACGGGATT
# B16: GGACUUG (DNA:RNA)
# RNA: B1 RNA with C25G, C26G, G28C, A30U, C31G
# DNA 1: CAATCTGAATTCCGGTCTCCC
# DNA 2: TGGTGGCTACGACGGGATT
# B17: CUGGAAG (DNA:RNA)
# RNA: B1 RNA with C26U, A27G, U29A, C31G
# DNA 1: CAATCTGAATTCCGGTCTCCC
# DNA 2: TGGTGGCTACGACGGGATT
# B18: CUGUACC (DNA:RNA)
# RNA: B1 RNA with C26U, A27G, G28U, U29A, A30C
# DNA 1: CAATCTGAATTCCGGTCTCCC
# DNA 2: TGGTGGCTACGACGGGATT
# B19: UGCCUGG (DNA:RNA)
# RNA: B4 RNA with A25U, A26G, G27C, A28C, G29U, A31G
# DNA 1: CAATCTGAATTCCGGTCTCCC
# DNA 2: TGGTGGCTACGACGGGATT
# B20: CAGGAUG (DNA:RNA)
# RNA: B4 RNA with A25C, A28G, G29A, G30U, A31G
# DNA 1: CAATCTGAATTCCGGTCTCCC
# DNA 2: TGGTGGCTACGACGGGATT
# B21: UUUCGUG (DNA:RNA)
# RNA: B4 RNA with A25U, A26U, G27U, A28C, G30U, A31G
# DNA 1: CAATCTGAATTCCGGTCTCCC
# DNA 2: TGGTGGCTACGACGGGATT
# B22: CCAACGA (DNA:RNA)
# RNA: B4 RNA with A25C, A26C, G27A, G29C
# DNA 1: CAATCTGAATTCCGGTCTCCC
# DNA 2: TGGTGGCTACGACGGGATT
# B23: AUACCUG (DNA:RNA)
# RNA: B4 RNA with A26U, G27A, A28C, G29C, G30U, A31G
# DNA 1: CAATCTGAATTCCGGTCTCCC
# DNA 2: TGGTGGCTACGACGGGATT
# B24: CGGCCCU (DNA:RNA)
# RNA: B4 RNA with A25C, A26G, A28C, G29C, G30C, A31U
# DNA 1: CAATCTGAATTCCGGTCTCCC
# DNA 2: TGGTGGCTACGACGGGATT
# B25: CGGGUCC (DNA:RNA)
# RNA: B1 RNA with C26G, A27G, A30C
# DNA 1: CAATCTGAATTCCGGTCTCCC
# DNA 2: TGGTGGCTACGACGGGATT
# B26: GUGGUCC (DNA:RNA)
# RNA: B1 RNA with C25G, C26U, A27G, A30C
# DNA 1: CAATCTGAATTCCGGTCTCCC
# DNA 2: TGGTGGCTACGACGGGATT
# B27: UGACAGU (DNA:RNA)
# RNA: B4 RNA with A25U, A26G, G27A, A28C, G29A, A31U
# DNA 1: CAATCTGAATTCCGGTCTCCC
# DNA 2: TGGTGGCTACGACGGGATT
# B28: CCAUUGU (DNA:RNA)
# RNA: B1 RNA with G28U, A30G, C31U
# DNA 1: CAATCTGAATTCCGGTCTCCC
# DNA 2: TGGTGGCTACGACGGGATT
# B29: GACGUAC (DNA:RNA)
# RNA: B1 RNA with C25G, C26A, A27C
# DNA 1: CAATCTGAATTCCGGTCTCCC
# DNA 2: TGGTGGCTACGACGGGATT
# B30: GGACUGG (DNA:RNA)
# RNA: B1 RNA with C25G, C26G, G28C, A30G, C31G
# DNA 1: CAATCTGAATTCCGGTCTCCC
# DNA 2: TGGTGGCTACGACGGGATT
# B31: GUCAGUU (DNA:RNA)
# RNA: B4 RNA with A25G, A26U, G27C, G30U, A31U
# DNA 1: CAATCTGAATTCCGGTCTCCC
# DNA 2: TGGTGGCTACGACGGGATT
# Molecular target: T1, RBFOX1 RRM
# Test: EMSA; HiTS-Eq, 1 nM pool, 10 min; buffer printed only for the single-RNA assays: 10 mM Tris pH 7.5, 150 mM NaCl, 3.4 mM EDTA, 0.001% NP-40, 30 C
# Conditions: tags: His6 N-terminal (pET28a); label: 5' 32P
# In short: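 Purified wild-type or mutant RbFox RRM at increasing concentrations was equilibrated with 1 nM of 5′-radiolabelled RNA carrying 7 randomized nucleotides for 10 min in 50 µL. Unbound RNA was separated by 8% native PAGE and sequenced. Relative association constants came from read-count changes of each RNA species compared with the control reaction, normalised to the cognate motif.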
row,Binder,binding signal
1,B1,0.00559 KA relative to UGCAUGU
2,B2,0.0171 KA relative to UGCAUGU
3,B3,0.0075 KA relative to UGCAUGU
4,B4,0.00231 KA relative to UGCAUGU
5,B5,0.00276 KA relative to UGCAUGU
6,B6,0.0162 KA relative to UGCAUGU
7,B7,0.00363 KA relative to UGCAUGU
8,B8,0.0068 KA relative to UGCAUGU
9,B9,0.0242 KA relative to UGCAUGU
10,B10,0.00265 KA relative to UGCAUGU
11,B11,0.00314 KA relative to UGCAUGU
12,B12,0.00922 KA relative to UGCAUGU
13,B13,0.000282 KA relative to UGCAUGU
14,B14,0.00751 KA relative to UGCAUGU
15,B15,0.0202 KA relative to UGCAUGU
16,B16,0.0273 KA relative to UGCAUGU

row,Binder,binding signal
1,B17,0.0188 KA relative to UGCAUGU
2,B18,0.00377 KA relative to UGCAUGU
3,B19,0.0474 KA relative to UGCAUGU
4,B20,0.0128 KA relative to UGCAUGU
5,B21,0.0207 KA relative to UGCAUGU
6,B22,0.00896 KA relative to UGCAUGU
7,B23,0.00861 KA relative to UGCAUGU
8,B24,0.00901 KA relative to UGCAUGU
9,B25,0.0159 KA relative to UGCAUGU
10,B26,0.0226 KA relative to UGCAUGU
11,B27,0.0198 KA relative to UGCAUGU
12,B28,0.00905 KA relative to UGCAUGU
13,B29,0.0104 KA relative to UGCAUGU
14,B30,0.0274 KA relative to UGCAUGU
15,B31,0.00927 KA relative to UGCAUGU
